Assay results taken from PubChem BioAssay AID1346428 (National Center for Advancing Translational Sciences (NCATS), 2018).
Several values for one entry are separate records, joined by “and”; a condition that tells them apart may be missing. Equal values may be shown once. Among all 48,000 compounds or so, about 1,200 (2.5%) were called active. Inconclusive results (about 2%) are left out.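 The calls were made as follows: active = activation of at least 60% and not above a set upper limit (about 1 call in 100 departs from these limits); inconclusive = activation of 40% to 60%, or above that upper limit; inactive = activation under 40%.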 Some of the results follow.

biological target: Probable G-protein coupled receptor 32 (Homo sapiens) (UniProt O75388); assay: qHTS for Agonists of Human Resolvin D1 Receptor DRV1; details: CHO-K1 GPR32 beta-arrestin PathHunter luminescence, 90 min; at 76.9 µM; active compounds read high; zero percent set by DMSO-only wells; also: 0% is about no effect
Chain of UniProt O75388 (O75388 whole entry, looked up): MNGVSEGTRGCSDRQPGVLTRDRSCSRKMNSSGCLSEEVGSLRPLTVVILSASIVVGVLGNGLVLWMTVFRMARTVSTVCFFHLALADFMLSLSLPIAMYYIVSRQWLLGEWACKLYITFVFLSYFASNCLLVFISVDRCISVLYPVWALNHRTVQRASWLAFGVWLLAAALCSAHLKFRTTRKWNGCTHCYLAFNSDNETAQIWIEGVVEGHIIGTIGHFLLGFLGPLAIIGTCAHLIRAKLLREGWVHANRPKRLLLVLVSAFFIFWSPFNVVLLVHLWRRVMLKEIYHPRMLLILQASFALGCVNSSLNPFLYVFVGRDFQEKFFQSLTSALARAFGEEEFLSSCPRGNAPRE
Method in brief: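 Luminescent readout of beta-Gal complementation quantifies ligand-induced beta-arrestin association with GPR32 in CHO-K1 cells; 90 min compound incubation at 37 °C, detection 1 h at room temperature.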

Row | SMILES | activation
1 | CC(C)c1nn2c(=O)cc(COC(=O)C3CCCCC3)nc2s1 | inactive: 12.7%
2 | Cc1ccc(S(=O)(=O)c2nnn3c2nc(NC2CCCCCC2)c2sccc23)cc1C | inactive: -11.1%
3 | CCCOc1cccc(C2c3c(oc4ccc(F)cc4c3=O)C(=O)N2CCCN2CCOCC2)c1 (stereo not drawn) | inactive: -4.19%
4 | Cc1ccc(CN(Cc2ccco2)C(=O)c2ccccc2Br)o1 | inactive: -26.4%
5 | CCCOc1ccc(-c2nonc2NC(=O)c2ccco2)cc1OCCC | inactive: 7.29%
6 | CC1CCN(C(=O)c2cc3c(=O)n(C)c4cc(Cl)ccc4c3s2)CC1 | inactive: -8.13%
7 | Cc1nc(-c2ccc(S(=O)(=O)N3CCN(c4cccc(C(F)(F)F)c4)CC3)cc2)co1 | inactive: 0.879%
8 | COc1cc2c(CCNC(C)=O)c[nH]c2cc1Cl | inactive: 2.49%
9 | Cc1cc(Br)cc(C)c1NC(=O)c1sc2ncn(Cc3cccc(F)c3)c(=O)c2c1C | inactive: -2.61%
10 | CCNC(=O)c1ccc(C)c(-n2c(C)nc3cccnc32)c1 | inactive: 5.65%
11 | Cc1ccc(NC(=O)Cn2c(=O)c3ccc(Cl)cc3n3nncc23)cc1 | inactive: 8.67%
12 | Cc1ccc(S(=O)(=O)NC(=O)NN2CCCCCC2)cc1 | inactive: 8.06% and inactive: 1.98%
13 | COc1cccc(-c2csc(-c3c(N)c(C(=O)c4ccc5c(c4)OCO5)n4ccccc34)n2)c1 | inactive: -6.56%
14 | CCOc1ccc(C2C(C(=O)Nc3ccccc3)=C(C)Nc3nc(-c4ccccc4)nn32)cc1OC (stereo not drawn) | inactive: -8.85%
15 | O=C(Cn1c(-c2cccs2)cc2ccccc21)N1CCN(c2ccc(Cl)cc2)CC1 | inactive: -9.66%
16 | COc1cccc(OC)c1C(=O)N[C@@H]1C(=O)N2[C@@H]1SC(C)(C)[C@@H]2C(=O)O | inactive: -8.61%
17 | COc1ccc(-c2cn3c(n2)sc2cc(C(=O)NCCC4=CCCCC4)ccc23)cc1 | inactive: -20.9%
18 | O=c1c2cnn(-c3ccc(F)cc3)c2ncn1Cc1ccccc1Cl | inactive: -4.94%
19 | Cc1cc(C)n(CCc2nc3c4ccccc4nc(SCc4ccc(F)cc4)n3n2)n1 | inactive: -10%
20 | COc1ccc(OC)c(NC(=O)C(C)n2c(=O)cc(C)c3c(C)nn(-c4ccccc4)c32)c1 (stereo not drawn) | inactive: -1.87%
21 | CCc1ccc(NCc2cc3ccc(OC)cc3n(CC(=O)Nc3ccccc3C)c2=O)cc1 | inactive: -12.5%
22 | COc1ccc(NC(=O)CSc2nc(-c3cccs3)cc(C(F)(F)F)n2)cc1Cl | inactive: 33.8%

Row | SMILES | activation
23 | Cc1ccc(CSC2=Nc3ccccc3C3=NC(CCC(=O)NC4CCCCC4)C(=O)N23)cc1 (stereo not drawn) | inactive: -29.6%
24 | COC(=O)c1ccc(Cl)cc1NC(=O)Nc1nnc(N(C)C2CCCCC2)s1 | inactive: 7.58%
25 | COc1ccc(CCC(=O)NCc2ccc3c(c2)CCN3C(=O)c2ccc(Cl)cc2)cc1 | inactive: -18%
26 | Cc1ccc(CNC(=O)C(NS(=O)(=O)c2cccs2)C(C)C)cc1 (stereo not drawn) | inactive: -4.38%
27 | CCCCN(CCCC)CCNC(=O)Cn1nc(CC)n2c(cc3sccc32)c1=O | inactive: -5.54%
28 | CCC1=Nc2cc(C(=O)NCCc3ccc(OC)c(OC)c3)ccc2Sc2ccccc21 | inactive: -4.46%
29 | CCc1ccc(C(=O)CC2(O)C(=O)N(CCc3ccccc3)c3ccc(Br)cc32)cc1 (stereo not drawn) | inactive: 9.96%
30 | CCc1c(C)sc2c1CCN(Cc1cccc(OC)c1)C2c1ccccc1 (stereo not drawn) | active: 61.4%
31 | CC(=O)c1cccc(NC(=O)CSc2nc3c(c(=O)[nH]2)CCC3)c1 | inactive: 23%
32 | CCc1ccc2oc(C(=O)Nc3ccccc3OC)cc(=O)c2c1 | inactive: 4.56%
33 | COc1ccc(-n2nc3ccc(NC(=O)c4c(OC)cccc4OC)cc3n2)cc1 | inactive: -0.963%
34 | O=C(Cn1c(=O)n(-c2ccc(F)cc2)c(=O)c2sc3ccccc3c21)NC1CCCC1 | inactive: 10.8%
35 | CCCCCCCCCC(=O)NC(CN1CCOCC1)[C@H](O)c1ccccc1 (stereo partly drawn) | inactive: -19.8%
36 | CCc1nc2ccccc2n2c(-c3ccc(C)cc3)c3c(=O)n(C)c(=O)n(C)c3c12 | inactive: 23.7%
37 | Cc1cc(C)cc(NC(=O)C2CCCN(S(=O)(=O)c3cccc4nsnc34)C2)c1 (stereo not drawn) | inactive: -7.56%
38 | Fc1ccc(Nc2nc(SCc3ccccc3Cl)nc3ccccc23)cc1 | inactive: -10%
39 | Cc1cccc(N2CCN(C(c3ccccc3)c3nnc(-c4ccccc4F)o3)CC2)c1C (stereo not drawn) | inactive: -36.6%
40 | CCOC(=O)c1c(C)[nH]c(C)c1S(=O)(=O)NCC(=O)Nc1ccc(C)cc1C | inactive: 18.7%
41 | COc1ccc(CSc2nc3ccncc3n2CC(=O)Nc2cc(C)cc(C)c2)cc1 | inactive: 5.98%
42 | Cc1csc2nc(COC(=O)CNC(=O)c3ccc(F)cc3)cc(=O)n12 | inactive: 10.6%
43 | NC(=O)C1CCN(C(=O)c2ccc3c(c2)N(Cc2cccc(Cl)c2)C(=O)c2ccccc2S3=O)CC1 (stereo not drawn) | inactive: -2.93%
